Test results published in PubChem BioAssay AID588579 (National Center for Advancing Translational Sciences (NCATS), 2011).
The whole screen tested about 400,000 compounds, of which about 2,200 (0.55%) were called active. This list was built around the results that the source calls inconclusive (neither active nor inactive); the mix of calls is not that of the screen. Calls come from the whole dose curve; as a rule, active = well fitted inhibition curve with a large enough effect; inconclusive = small, poorly fitted or top-dose-only effect, or another doubt; inactive = no such curve, though single readings can be large or run the other way. Potencies of inconclusive entries are doubtful fits and often do not repeat. Some compounds were tested as several samples or in several runs, with calls that do not always agree.

What follows are molecules tested against DNA polymerase kappa (Homo sapiens) (UniProt Q9UBT6) (assay: qHTS for Inhibitors of Polymerase Kappa). Details: purified Pol kappa, fluorescent DNA synthesis assay, 10 min; series mostly up to 107 µM; activity, negative = inhibition: at the top concentration.
Summary of the method: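 Kinetic fluorescence screen: compound preincubated 15 min RT with 10 nM enzyme; 50 nM substrate (final) initiates; reads at 0/10 min.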
% is set by controls: 0 for no effect and ±100 for the full control effect; potency is the fitted concentration of half-maximal effect; tags give direction and shape of the fitted curve.

Sequence of UniProt Q9UBT6 (Q9UBT6 whole entry, looked up): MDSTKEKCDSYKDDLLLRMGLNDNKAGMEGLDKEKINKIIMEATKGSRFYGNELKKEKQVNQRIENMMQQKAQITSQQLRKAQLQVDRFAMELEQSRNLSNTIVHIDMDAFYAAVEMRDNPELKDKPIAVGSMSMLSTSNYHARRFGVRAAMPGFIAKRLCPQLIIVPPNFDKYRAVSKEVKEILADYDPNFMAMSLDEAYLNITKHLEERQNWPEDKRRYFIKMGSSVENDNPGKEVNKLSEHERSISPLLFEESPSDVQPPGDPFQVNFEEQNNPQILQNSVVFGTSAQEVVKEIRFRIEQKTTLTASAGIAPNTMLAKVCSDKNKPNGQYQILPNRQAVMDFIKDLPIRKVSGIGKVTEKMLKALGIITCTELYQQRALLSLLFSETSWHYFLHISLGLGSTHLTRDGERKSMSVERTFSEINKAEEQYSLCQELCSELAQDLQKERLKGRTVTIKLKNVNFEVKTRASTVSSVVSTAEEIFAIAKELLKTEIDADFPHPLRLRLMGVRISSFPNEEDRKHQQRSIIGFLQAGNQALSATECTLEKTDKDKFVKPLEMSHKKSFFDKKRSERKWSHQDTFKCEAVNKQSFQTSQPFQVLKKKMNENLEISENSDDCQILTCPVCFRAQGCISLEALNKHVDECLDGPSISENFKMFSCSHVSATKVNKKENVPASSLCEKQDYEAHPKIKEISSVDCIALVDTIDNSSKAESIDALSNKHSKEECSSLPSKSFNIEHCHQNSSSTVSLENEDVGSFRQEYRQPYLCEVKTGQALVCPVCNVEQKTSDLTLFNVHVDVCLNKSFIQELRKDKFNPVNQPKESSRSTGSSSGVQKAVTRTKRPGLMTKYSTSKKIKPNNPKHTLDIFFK

Potency, inconclusive:
O=c1c(/C=C(\O)c2ccc(F)cc2)nc2ccccc2n1-c1ccccc1 89.1 µM [inhibitor, single point]
NS(=O)(=O)c1ccc(CNC(=O)/C=C/c2ccco2)cc1 79.4 µM [inhibitor, single point]
CN(c1ccc(-c2csc(NC(=O)C3CC(=O)N(Cc4ccco4)C3)n2)cc1)S(C)(=O)=O (stereo not drawn) 79.4 µM [inhibitor, single point]
O=C(O)c1ccc(-c2c3nc(c(-c4ccc(C(=O)O)cc4)c4ccc([n-]4)c(-c4ccc(C(=O)O)cc4)c4nc(c(-c5ccc(C(=O)O)cc5)c5ccc2[n-]5)C=C4)C=C3)cc1.[Mn+3] 37.7 µM [inhibitor, single point]
CC(C)c1ccc(/C=C2\SC(=S)N(CCC(=O)NCCCn3ccnc3)C2=O)cc1 100 µM [inhibitor, single point]
O=Cc1cn(-c2ccccc2)nc1-c1cc2cc(O)ccc2oc1=O 39.8 µM [inhibitor, full curve]
Cc1ccccc1N=C(N)Nc1ccccc1C 79.4 µM [inhibitor, partial curve]
O=C(O)c1ccccc1-c1ccc(/C=C/c2cc(C(F)(F)F)[nH]c(=O)n2)o1 79.4 µM [inhibitor, single point]
COc1ccccc1NC(=O)Cn1c(O)c(N=NC(=O)c2ccccc2O)c2ccccc21 79.4 µM [inhibitor, partial curve, poor fit]
Cc1c(C(=O)N(Cc2ccccc2F)C2CCS(=O)(=O)C2)oc2ccccc12 (stereo not drawn) 89.1 µM [inhibitor, partial curve, poor fit]
Cc1ccccc1/C=C/c1nc2ccccc2c(=O)[nH]1 89.1 µM [inhibitor, single point]
Nc1c(Cl)cc(S(N)(=O)=O)cc1S(N)(=O)=O 89.1 µM [inhibitor, single point]
CC(C)(C)c1ccc(C(=O)N/C(=C\c2ccco2)C(=O)Nc2ccccc2C(=O)O)cc1 100 µM [inhibitor, partial curve, poor fit]
CC1=C2C(CCS2(=O)=O)CC2(C1)C(=O)OC(C)(C)OC2=O (stereo not drawn) 89.1 µM [inhibitor, single point]
CCc1ccc2c(c1)c1nc(C)sc1n2CC(=O)OC 89.1 µM [inhibitor, single point]
CCN(CC)CCN1C(=O)c2cccc3cc(N)cc(c23)C1=O 89.1 µM [inhibitor, partial curve]
CC(=O)OCCCNc1cc(Sc2ccc(C)cc2)c2nonc2c1[N+](=O)[O-] 100 µM [inhibitor, single point]
CCOC(=O)[C@@H]1[C@H]2COc3ccccc3[C@H]2N2C(=O)N(c3ccc(F)cc3)C(=O)[C@]12C 100 µM [inhibitor, partial curve, poor fit]
O=[N+]([O-])c1cc(Cl)cc(/C=N/NC(=S)Nc2cc(S(=O)(=O)N3CCOCC3)ccc2Cl)c1O 89.1 µM [inhibitor, single point]
Cc1nc(SCC(=O)O)c(C#N)c2c1CCCC2 89.1 µM [inhibitor, single point]
CC1(C)CC[C@]2(C(=O)O)CC[C@]3(C)C(=CC[C@@H]4[C@@]5(C)CC[C@H](O[C@@H]6O[C@H](C(=O)O)[C@@H](O)[C@H](O[C@@H]7OC[C@H](O)[C@H](O)[C@H]7O)[C@H]6O)C(C)(C)[C@@H]5CC[C@]43C)[C@@H]2C1 79.4 µM [inhibitor, single point]
CCOC(=O)c1c(-c2ccco2)csc1NC(=O)COC(=O)c1cnccn1 100 µM [inhibitor, single point]
O=C(Nc1cc(C(=O)Nc2ccc(S(=O)(=O)O)cc2)cc(C(=O)Nc2ccc(S(=O)(=O)O)cc2)c1)Nc1cc(C(=O)Nc2ccc(S(=O)(=O)O)cc2)cc(C(=O)Nc2ccc(S(=O)(=O)O)cc2)c1 23.8 µM [inhibitor, single point]

Potency, active:
CCOc1cccc(C(=O)c2ccc(O)c(O)c2O)c1 4.47 µM
O=C(NC1CC1)c1ccc2nc(-c3ccco3)c(-c3ccco3)nc2c1 22.4 µM
O=c1cc(-c2ccc(O)cc2)oc2cc(O)cc(O)c12 20 µM
COc1cc(C)cc(C(=O)O)c1C1=C(O)c2cccc(O)c2C(=O)C1=O 50.1 µM
O=c1cc(-c2ccccc2)oc2cc(O[C@@H]3O[C@H](CO)[C@@H](O)[C@H](O)[C@H]3O)c(O)c(O)c12 10 µM
CS(=O)(=O)c1ccc2c(c1)sc1nc(=O)c(/C=C3/C=CC(=O)C(O)=C3)c(N)n12 7.94 µM
Nc1ccc2nc(-c3cccc(-c4nc5ccc(N)cc5[nH]4)c3)[nH]c2c1 35.5 µM

activity, negative = inhibition, inactive:
COc1cc(C)ccc1OCCOc1cc(C)ccc1Cl -8.41%
O=C(COC(=O)/C=C/c1ccc(F)cc1)NCc1ccc2c(c1)OCO2 -3.7%
CCOc1ccc(N2CC(NC(=O)c3ccco3)CC2=O)cc1 (stereo not drawn) -4.79% [at 60.1 µM]
O=C(CSc1nc2ccccc2nc1Cc1ccc(Cl)cc1)Nc1ccc2c(c1)OCO2 -2.62% [at 60.1 µM]
Cc1cccc(N2CC(C(=O)Nc3nnc(SCC(=O)N4CCOCC4)s3)CC2=O)c1 (stereo not drawn) -26.6%
O=C(CSc1ccccc1C(=O)O)NCc1ccco1 -9.21%
O=C(COc1ccc2c(c1)OCO2)Nc1nccs1 -8.11%
Cc1ccc(Cn2c(SCc3ccc(C(=O)NC4CCCCC4)cc3)nc3ccncc32)cc1 -3.81%
CCn1c(SCC(=O)N/N=C/c2ccc(C)o2)nnc1-c1ccc(C)cc1 -0.111%
Cc1ccc(Nc2c(-c3c[nH]c4ccccc34)nc3ccccn23)cc1 -3.52%
O=C(Nc1ccc(F)cc1)C1CCN(S(=O)(=O)c2cccc3nonc23)CC1 -2.18%
CC(C)n1c(=O)[nH][nH]c1=S -0.0993%
Nc1ncc(S(=O)(=O)NCc2ccccc2)cn1 -11.7% [at 60.1 µM]
